# Laboratory results as given in PubChem BioAssay AID1347417 (National Center for Advancing Translational Sciences (NCATS), 2020).
# Out of some 120,000 compounds screened, about 5,300 (4.4%) were called active. Inconclusive results, whose numbers are uncertain, are shown with a selection of clear calls. Calls come from the whole dose curve; as a rule, active = well fitted inhibition curve with a large enough effect; inconclusive = small, poorly fitted or top-dose-only effect; inactive = no such curve, though single readings can be large or run the other way. Potencies beside an inconclusive call are fits to weak or partial responses and may not hold up.
# Test: qHTS Primary assay for Inhibitors of Plasmodium falciparum Dd2 growth in vitro; note: nearly all actives have a fitted effect of over 65% in size;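 for activity, negative = inhibition: plate controls were DMSO vehicle for no effect and reference drug for full effect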
# Conditions: P. falciparum Dd2 growth, SYBR Green, 72 h; activity, negative = inhibition: at 28.9 µM (top of the series) unless noted; series mostly up to 28.9 µM
# Procedure, shortened: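 Readout: SYBR Green fluorescence, 485 nm excitation, 535 nm emission, after ~16 h lysis at 37C. Before that, Dd2-infected red cells (2.5% hematocrit) grew 72 h with compound, 29 uM top final concentration.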
# Potency is the fitted concentration of half-maximal effect; tags give direction and shape of the fitted curve.
SMILES,Potency,"activity, negative = inhibition",outcome
CN1CCC2(CCC1=O)CN(Cc1cccc(Cl)c1Cl)CCN2C (configuration not stated),"inconclusive: 7.08 µM [inhibitor, partial curve]",,
CCOC(=O)c1ccc(NC(=O)Cn2cc(S(=O)(=O)Cc3ccccc3F)c3ccccc32)cc1,"inconclusive: 14.1 µM [inhibitor, single point]",,
CCOc1cccc(CNC(=O)C2Cn3cccc3C(=O)N2Cc2ccccc2)c1 (configuration not stated),"inconclusive: 3.16 µM [inhibitor, single point]",,
COC(=O)c1ccc(CN(Cc2ccc(OC)c(OC)c2)S(=O)(=O)c2ccc(F)c(C(=O)Nc3cc(C)ccc3C)c2)cc1,"inconclusive: 10 µM [inhibitor, single point]",,
CCCc1cc(CNC(=O)c2ccc(N3C[C@@H](C)O[C@@H](C)C3)nc2)on1,,inactive: -3.11%,
COc1ccc(-n2nc(C3CCN(Cc4ccccn4)CC3)[nH]c2=O)cc1,"inconclusive: 1 µM [inhibitor, partial curve, poor fit]",,
O=C(c1ccc2c(c1)OCO2)N1CCC2(CC1)COc1ccccc1CN2,active: 1.26 µM,,
CC(C)N1C(=O)C2(CCCC2)C1C(=O)NCCCN1CCCC1 (configuration not stated),,inactive: -5.73%,
CC(C)(C)c1coc([C@@H]2COCCN2Cc2ccc(F)cc2)n1,"inconclusive: 31.6 µM [inhibitor, single point]",,
CC(=O)c1cccc(NC(=O)c2ccc3c(c2)c(C)c(C)n3Cc2ccc(Cl)cc2)c1,"inconclusive: 4.47 µM [inhibitor, partial curve, poor fit]",,
COC(=O)c1c(NC(=O)c2ccc(OC)cc2)c2cc(NC(C)CCn3cccn3)cnc2n1C (configuration not stated),,inactive: -20.3%,
CCN(Cc1ccccc1)Cc1c(O)ccc2c(=O)c(-c3ccccc3Cl)coc12,"inconclusive: 17.8 µM [inhibitor, single point]",,
CC(C)(C)NC(=O)C[C@@H]1CCNC[C@@H]1Cc1cc(CC2CCCCC2)on1,"inconclusive: 11.2 µM [inhibitor, partial curve, poor fit]",,
CC1CN2CC(O)CC2CN1 (configuration not stated),,inactive: 15.3% [at 76.6 µM],
Cc1ccc(CN2CC[C@@H]3[C@H]2C(=O)NC[C@H](CCC(=O)N2CCCC2)N3C)cc1,,inactive: -9.3% [at 44.1 µM],
CCC(CC)C(=O)N1CCC(O)(c2csc(CN3CCc4ccccc4C3)n2)CC1,"inconclusive: 11.2 µM [inhibitor, partial curve, poor fit]",,
O[C@@H]1CC(CNCC2CCCC2)(COc2ccc(C(F)(F)F)cn2)C[C@@H]1O (some centres not stated),"inconclusive: 0.447 µM [inhibitor, full curve]",,
O=C(O)c1ccc(CN2C[C@@H](F)[C@@H](OCc3nc4ccc(C(F)(F)F)cc4[nH]3)C2)cc1,,inconclusive: -31.6% [inhibitor],
COc1ccc(-c2nnc3ccc(N4CCC(c5ccccc5)CC4)nn23)nc1,"inconclusive: 10 µM [inhibitor, partial curve, poor fit]",,
Cc1ccc(C)c(Cn2c(C(C)NC(=O)c3ccccc3)nc3ccccc32)c1 (configuration not stated),,inactive: -14.7%,
C=CCN(Cc1ccc(F)cc1)Cc1ccccc1OCC(N)=O,"inconclusive: 7.94 µM [inhibitor, partial curve]",,

SMILES,Potency,"activity, negative = inhibition",outcome
COCc1nc(N(C)Cc2ccccc2)ncc1C(=O)O,,inactive: 21.5%,
CN1CC(=O)N(c2ccccc2)Cc2c(NCC(C)(C)C)ncnc21,"inconclusive: 31.6 µM [inhibitor, single point]",,
COc1ccc(N2C(=O)CSC23CCN(C(=O)Nc2ccc([N+](=O)[O-])cc2)CC3)cc1,"inconclusive: 2.82 µM [inhibitor, partial curve, poor fit]",,
CN(C)S(=O)(=O)N1C[C@H]2OC(=O)N(CCc3cccc(Cl)c3)[C@H]2C1,,inactive: 4.6%,
CCc1ccc(-c2cn3c(n2)sc2cc(C(=O)NCCCc4ccccc4)ccc23)cc1,,,inactive
O=C(NC1CCN(c2cnn(Cc3ccccc3)c(=O)c2)CC1)C1CCCCC1,"inconclusive: 10 µM [inhibitor, partial curve]",,
COCC(=O)N1CCCC(C(=O)NCCCn2nc(C)c(Cl)c2C)C1 (configuration not stated),,inactive: -12.1%,
N#Cc1cccc(CN2CC[C@H](c3nnc(-c4ccco4)o3)C2)c1,"inconclusive: 10 µM [inhibitor, partial curve, poor fit]",,
COc1ccc(CC(=O)Nc2ccc3ncnc(N4CCCC4)c3c2)c(Cl)c1,,inactive: -6.63%,
CC1(C)[C@H](Cc2cc(CN3CCOCC3)on2)C[C@@H]1N(Cc1ccco1)Cc1ccco1,"inconclusive: 10 µM [inhibitor, single point]",,
CCN(CC)CCNC(=O)c1ccc2c(=O)n3nc(Nc4cccc(Cl)c4C)sc3nc2c1,active: 5.62 µM,,
CN(Cc1ccccc1)Cc1cccn1C,"inconclusive: 14.1 µM [inhibitor, partial curve]",,
O=C1CCN(S(=O)(=O)c2ccccc2)CCCN(Cc2cccc(OC(F)(F)F)c2)CCN1,"inconclusive: 15.8 µM [inhibitor, single point]",,
CC(C)CN1CCC[C@H]1c1nc(-c2ccnc(N3CCOCC3)c2)no1,"inconclusive: 11.2 µM [inhibitor, partial curve, poor fit]",,
Cc1ncoc1C(=O)N[C@@H]1CN(Cc2ccccc2)C[C@H]1CN(C)C,,,inactive
COc1ccc(Cn2c(CCC(=O)Nc3cccc(Cl)c3)nc3cccnc32)cc1,"inconclusive: 11.2 µM [inhibitor, partial curve, poor fit]",,
CCOCCOC1CCN(S(=O)(=O)c2ccc(OC)cc2)CC1,"inconclusive: 11.2 µM [inhibitor, partial curve, poor fit]",,
CCOc1ccc2c(n1)CCN(C(=O)c1cccnc1)C2,,inactive: 5.82%,
COc1ccc(Cl)cc1-c1ccc2c(c1)C(=O)N1CCN(C(=O)C3CCNCC3)C[C@@H]1C(=O)N2,"inconclusive: 2.51 µM [inhibitor, partial curve, poor fit]",,
CC1(c2noc(-c3cccnc3)n2)CCN(C(=O)CCC(=O)N2CC(=O)Nc3ccccc32)CC1,"inconclusive: 3.98 µM [inhibitor, single point]",,
O=C(NCc1ccc2c(c1)OCO2)[C@@H]1C[C@H](c2ccc(F)cc2)N([S+](=O)([O-])C2CC2)C1,,inactive: 8.8%,
